Source: publication PMC4336329 (PLoS ONE, 2015)
Among all 310,000 compounds or so, about 2,200 (0.71%) showed an effect of 50% or more. Effects have a minus sign here. Some of the results follow.

molecular target: human ether-à-go-go-related gene (hERG) potassium channel (human, UniProt Q12809); experiment: primary screen, population patch clamp on CHO cells stably expressing hERG
Sequence (Q12809 whole entry, looked up): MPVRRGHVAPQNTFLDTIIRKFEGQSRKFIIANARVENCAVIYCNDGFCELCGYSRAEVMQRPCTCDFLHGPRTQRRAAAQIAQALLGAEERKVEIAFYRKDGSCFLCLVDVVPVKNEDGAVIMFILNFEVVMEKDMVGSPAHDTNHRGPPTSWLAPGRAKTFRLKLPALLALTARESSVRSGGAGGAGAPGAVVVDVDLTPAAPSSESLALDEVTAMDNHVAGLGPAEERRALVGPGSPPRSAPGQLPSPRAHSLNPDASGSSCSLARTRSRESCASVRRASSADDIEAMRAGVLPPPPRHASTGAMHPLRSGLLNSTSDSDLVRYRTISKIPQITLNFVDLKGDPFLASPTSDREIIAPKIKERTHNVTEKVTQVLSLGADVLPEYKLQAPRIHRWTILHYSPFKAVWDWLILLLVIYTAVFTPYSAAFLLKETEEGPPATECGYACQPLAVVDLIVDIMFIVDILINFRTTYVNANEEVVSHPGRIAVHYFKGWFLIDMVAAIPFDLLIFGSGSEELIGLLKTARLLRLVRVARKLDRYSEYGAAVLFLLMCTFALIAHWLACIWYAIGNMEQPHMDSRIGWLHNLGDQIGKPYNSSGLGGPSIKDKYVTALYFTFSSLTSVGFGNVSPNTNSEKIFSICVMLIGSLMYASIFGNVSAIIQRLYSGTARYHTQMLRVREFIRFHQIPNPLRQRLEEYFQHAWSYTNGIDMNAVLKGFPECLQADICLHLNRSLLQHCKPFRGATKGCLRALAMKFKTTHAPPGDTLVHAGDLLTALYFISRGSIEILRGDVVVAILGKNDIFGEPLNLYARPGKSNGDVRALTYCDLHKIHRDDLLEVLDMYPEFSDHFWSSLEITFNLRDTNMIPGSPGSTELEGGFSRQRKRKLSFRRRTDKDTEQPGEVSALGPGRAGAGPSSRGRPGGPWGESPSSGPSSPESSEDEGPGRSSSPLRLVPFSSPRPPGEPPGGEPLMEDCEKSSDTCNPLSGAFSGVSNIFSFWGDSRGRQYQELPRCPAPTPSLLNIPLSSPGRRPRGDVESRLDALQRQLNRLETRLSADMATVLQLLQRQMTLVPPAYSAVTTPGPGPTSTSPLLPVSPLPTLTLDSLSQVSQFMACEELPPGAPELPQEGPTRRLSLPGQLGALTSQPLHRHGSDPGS

Row | SMILES | hERG current change (%, negative = inhibition) at 1uM [%]
1 | O=C(NCC(=O)N(CCN1CCOCC1)C(C(=O)NC1CCCC1)c1ccccc1)c1cccs1 (stereo not shown) | 5.12
2 | Cc1cc(C)n2nc(NCc3ccccc3)nc2n1 | -11.8
3 | Cc1ccccc1NC(=O)C1CCN(C2=NS(=O)(=O)c3ccccc32)CC1 | 7.28
4 | CCN(CC)CC(=O)NCc1cc(-c2ccc(OC)cc2)no1 | 6.12
5 | CC(C)c1ccc(/C=C2\C(=O)N(CCN3CCOCC3)C(=S)N2C)cc1 | 11.4
6 | Cc1ccc(/C=N/NC(=O)c2nnn(-c3nonc3N)c2CSc2ccc(Cl)cc2)o1 | -3.72
7 | N/C(=N\OC(=O)CCCOc1ccc(Cl)cc1Cl)c1ccccn1 | 3.47
8 | O=C(Nc1ccc2c(c1)CCC2)c1ccc(F)c(S(=O)(=O)N2CCOCC2)c1 | 0.118
9 | O=C(CCCCCC(=O)N(CCO)CCO)N(CCO)CCO | -2.52
10 | COc1ccc(C)cc1N(C(=O)COc1ccccc1)c1nc2ccccc2s1 | 18.4
11 | CCc1ccc(OCc2nnc(SCC(=O)NCC3CCCO3)n2C)cc1 (stereo not shown) | -1.08
12 | CCOC(=O)C1=C(C)NC2=C(C(=O)C(C(=O)OCC)C(c3cccc(OC)c3)C2)C1c1ccccn1 (stereo not shown) | 12.4
13 | CCCn1c(SCC(=O)NC(C)c2ccccc2)n[nH]c1=O (stereo not shown) | 17.2
14 | C/C(Cn1cnc([N+](=O)[O-])n1)=N\NC(=O)c1ccncc1 | 14.6
15 | CC(=O)N1CCOc2ccc(S(=O)(=O)N3CCCCC3)cc21 | 15.1
16 | COc1ccc(/C=C/C(=O)OCC(=O)NCCC2=CCCCC2)cc1OC | 3.78
17 | COc1ccccc1NC(=O)c1ccc(COc2ccccc2OC)o1 | 0.973
18 | CC1CCCN(CCOc2ccc(Br)cc2)C1 (stereo not shown) | -21
19 | O=C(Nc1ccccc1OC(F)F)c1cc2c(s1)CCC2 | 6.76
20 | C=CCOc1ccc2c(c1)c(S(=O)(=O)c1ccc(C)cc1)cn2COC | 11.3
21 | O=C(CSc1nnc(-c2cccnc2)o1)c1cc2ccccc2oc1=O | 17
22 | CC(C)(C)c1ccc(CNC(=O)C2CCCN2C(=O)Nc2ccccc2)cc1 (stereo not shown) | -4.44

Row | SMILES | hERG current change (%, negative = inhibition) at 1uM [%]
23 | COc1ccc2c(c1)C=C(CN1CCN(C3CCCC3)C(CCO)C1)CO2 (stereo not shown) | -41.1
24 | CNC(=S)N(CCc1ccc(OC)c(OC)c1)C1CC(=O)N(c2ccccc2)C1=O (stereo not shown) | 9.94
25 | COc1ccc2nc(SCC(=O)c3c(N)n(C4CC4)c(=O)[nH]c3=O)[nH]c2c1 | 10.8
26 | CCc1c(C)c2ccc(O)c(CN3CCCC3)c2oc1=O | 13.6
27 | COc1ccc(N2C(=O)C(CC(=O)Nc3ccc(Cl)cc3)N(NC(=O)c3cccc(F)c3)C2=S)cc1 (stereo not shown) | 14.6
28 | COCCCNC(=O)CC(NCCCOC)C(=O)O (stereo not shown) | 8.81
29 | CCCC1=C(C(=O)OCC)C(c2cccs2)n2ncnc2N1 (stereo not shown) | 9.85
30 | COc1ccc(CN2CCN(c3cccc(C)c3C)CC2)cc1OC | -61.1
31 | CC1CC(N(C(=O)C2CC2)c2ccccc2)c2ccccc2N1C(=O)C1CC1 (stereo not shown) | 3.81
32 | Cc1ccc(C(=O)O)cc1NC(=O)CN1C(=O)C2C3c4ccccc4C(Br)(c4ccccc43)C2C1=O (stereo not shown) | 13.1
33 | COc1cc(/C=C(\C#N)C(=O)NC2CCCCC2C)ccc1OS(=O)(=O)c1ccc(C)cc1 (stereo not shown) | 3.16
34 | O=C1CN(Cc2nc3cc(Cl)ccc3c(=O)[nH]2)CCN1 | 22.9
35 | CC[N+](CC)(CCCCS(=O)(=O)[O-])CCNP1(=O)C=C(c2ccccc2)OC(c2ccccc2)=C1 | 5.87
36 | Cc1[nH]nc2c1C1(C(=O)Nc3ccc([N+](=O)[O-])cc31)C(C#N)=C(N)O2 (stereo not shown) | 13.4
37 | Cc1ccc(C)c(NC(=O)c2cc3ccccn3n2)c1 | -5.37
38 | Cc1cc(C)c(O)c(-c2cc(C(=O)Nc3cccnc3)[nH]n2)c1 | 5.7
39 | O=c1ccc2cc(S(=O)(=O)N3CCN(c4ccccc4)CC3)ccc2o1 | -0.671
40 | CCCc1cc(=O)[nH]c(SCc2ccccc2)n1 | 9.6
41 | Brc1ccc(-c2nc(-c3ccncc3)no2)o1 | 2.74
42 | COc1cc(NC(=O)COc2ccc3c(C)cc(=O)oc3c2C)cc(OC)c1OC | 26.2
43 | CCn1c2ccccc2n2c(=O)c(=O)n(CC(=O)Nc3ccc(C(C)C)cc3)nc12 | 11
